The antibiotic and cytotoxicity screens of Wong et al. (2023)
Some of the results follow.

test system: S. aureus RN4220; assay: growth inhibition call (relative growth <= 0.2); conditions: 50 µM

Growth inhibition call, inactive:
Cc1cc(C(=O)Nc2cccc3c2O[C@H](CN(C)Cc2ccc(C(=O)O)cc2)[C@H](C)CN([C@H](C)CO)C3=O)n(C)n1
COCC(=O)Nc1ccc2c(c1)OC[C@@H](C)N(C(=O)CN1CCOCC1)C[C@@H](C)[C@H](OC)CN(C)C2=O
C[C@H]1CN([C@@H](C)CO)C(=O)c2cccc(NC(=O)CCCCCC(=O)Nc3ccccc3N)c2O[C@@H]1CN(C)C(=O)Nc1ccc(C(F)(F)F)cc1
CO[C@H]1O[C@H](CO)[C@@H](OC(=O)Nc2ccccc2)[C@@H]2OC(=O)[C@@H](Cc3ccc4ccccc4c3)C/C=C/C[C@H](Cc3ccc4ccccc4c3)C(=O)O[C@@H]12
NCc1ccccc1-c1ccco1
CCS(=O)(=O)NCC[C@@H]1CC[C@@H](NS(=O)(=O)c2ccccc2C)[C@H](CO)O1
C[C@@H]1CCCCO[C@H](CN(C)C(=O)C2CCCCC2)[C@H](C)CN([C@@H](C)CO)C(=O)c2cc(NC(=O)Nc3ccc4c(c3)OCO4)ccc2O1
Cc1noc(C)c1NC(=O)N(C)C[C@@H]1Oc2c(NC(=O)Nc3cccc4ccccc34)cccc2C(=O)N([C@H](C)CO)C[C@@H]1C
CC(=O)OC1CCC2(C)C(CCC3(C)C2CCC24OC(=O)C5(CCC(C)C(C)C52)CCC34C)C1(C)C (stereo unspecified)
C[C@@H]1CN([C@H](C)CO)C(=O)c2cccc(NC(=O)Nc3ccc(C(F)(F)F)cc3)c2O[C@@H]1CN(C)C(=O)Nc1ccc(C(F)(F)F)cc1
O=C(O)c1cc(=O)cc[nH]1
